From PMC11432763, “Machine Learning-Driven Discovery and Evaluation of Antimicrobial Peptides from Crassostrea gigas Mucus Proteome” (Marine Drugs, 2024)
Where a SMILES comes first, the peptide text is derived from it.

Legend:
Experiment in all cases: Antimicrobial activity assay, broth microdilution, OD600
Assay type in all cases: cell-based
Details in all cases: peptide 0-50 μM in LB, inoculum 1 × 10^5 cells, 12 h, 37 °C, OD600, triplicate
[1] = tested on: Staphylococcus aureus ATCC 29213
Procedure: (§1) Candidate peptides were assessed for antimicrobial activity against Escherichia coli DH5α, Vibrio parahaemolyticus […], and Staphylococcus aureus ATCC 29213 using the method of Mao et al. with some modifications. […] LB broth without cells served as the blank control. […] Following a 12 h incubation at 37 °C, OD at 600 nm readings were taken in a microplate reader to assess bacterial growth inhibition. Data were presented as a heat map depicting antimicrobial efficacy against the three bacterial strains.

[2] = tested on: Vibrio parahaemolyticus E151
Procedure: as §1

Escherichia coli DH5α = tested on: Escherichia coli DH5α
Procedure: as §1

Molecule | Inhibitory effect on S. aureus growth (in words) [1] | Effect against V. parahaemolyticus (in words) [2] | Antimicrobial effect against E. coli (in words) (Escherichia coli DH5α)
CC[C@H](C)[C@H](NC(=O)[C@H](CCCCN)NC(=O)[C@H](Cc1ccc(O)cc1)NC(=O)[C@H](CCCCN)NC(=O)[C@H](CCCCN)NC(=O)[C@H](Cc1ccccc1)NC(=O)[C@H](CCCNC(=N)N)NC(=O)[C@H](CC(N)=O)NC(=O)[C@H](CCSC)NC(=O)[C@@H](NC(=O)[C@H](CC(C)C)NC(=O)[C@H](Cc1ccc(O)cc1)NC(=O)[C@@H](NC(=O)[C@H](C)NC(=O)[C@H](CCCNC(=N)N)NC(=O)[C@H](CCSC)NC(=O)[C@H](CCCCN)NC(=O)[C@H](CCCCN)NC(=O)[C@H](C)NC(=O)[C@H](CCCNC(=N)N)NC(=O)[C@H](CCCNC(=N)N)NC(=O)[C@@H](N)CCCNC(=N)N)[C@@H](C)CC)[C@@H](C)CC)C(=O)O [P4] (H-RRRAKKMRAIYLIMNRFKKYKI-OH; N-terminus and C-terminus assumed) | most substantial inhibitory effect | marked, dose-dependent bactericidal effects | pronounced antimicrobial effects
CC(C)C[C@H](NC(=O)[C@@H](N)CC(C)C)C(=O)N[C@@H](CCCNC(=N)N)C(=O)N[C@@H](CCCNC(=N)N)C(=O)N[C@@H](CCCCN)C(=O)N[C@@H](Cc1ccccc1)C(=O)N[C@@H](Cc1ccccc1)C(=O)N[C@@H](Cc1ccccc1)C(=O)O [S2] (H-LLRRKFFF-OH; N-terminus and C-terminus assumed) | – | – | slightly antimicrobial activity
LLFRRRLL [S1] | – | – | slightly antimicrobial activity
WKQIKFYVYNRILKKRK [P2, peptide … derived from Crassostrea gigas mucous proteins, selected by machine learning] | – | marked, dose-dependent bactericidal effects | pronounced antimicrobial effects
